About 16,000 (7.3%) of roughly 220,000 compounds were called active. Inconclusive means that the source gave no clear call. Such entries were picked first, then a sample of the others. The call rests on the fitted dose curve; in most records, active means well fitted inhibition curve with a large enough effect (not every such curve was filed as active); inconclusive means small, poorly fitted or top-dose-only effect, or another doubt; inactive means no such curve, though single readings can be large or run the other way. Potencies of inconclusive entries are left out as doubtful fits.
What follows are compounds tested against Aldehyde dehydrogenase 1A1 (Homo sapiens) (UniProt P00352) (assay: qHTS Assay for Inhibitors of Aldehyde Dehydrogenase 1 (ALDH1A1)). Details: Purified ALDH1A1, NADH fluorescence, propionaldehyde substrate; series mostly up to 75.3 µM; activity, negative = inhibition: at the top concentration.
UniProt P00352, sequence (P00352 whole entry, looked up): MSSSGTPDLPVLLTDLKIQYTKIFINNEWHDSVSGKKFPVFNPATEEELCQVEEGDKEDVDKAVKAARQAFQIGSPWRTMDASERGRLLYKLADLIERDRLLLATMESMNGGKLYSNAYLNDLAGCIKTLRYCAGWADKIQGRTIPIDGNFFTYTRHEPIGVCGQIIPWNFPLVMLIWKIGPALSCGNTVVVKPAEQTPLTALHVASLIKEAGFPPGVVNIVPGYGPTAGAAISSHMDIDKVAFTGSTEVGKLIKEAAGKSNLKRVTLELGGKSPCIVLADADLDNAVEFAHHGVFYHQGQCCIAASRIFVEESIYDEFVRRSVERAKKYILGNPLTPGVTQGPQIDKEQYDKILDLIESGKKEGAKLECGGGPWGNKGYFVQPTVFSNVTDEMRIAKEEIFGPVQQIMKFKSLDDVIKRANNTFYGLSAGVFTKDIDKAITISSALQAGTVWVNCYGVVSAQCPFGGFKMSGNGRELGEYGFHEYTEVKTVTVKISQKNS
For `Cc1nn(-c2ccc(Cl)cc2)c2[nH]c(=O)c(CNCc3ccc4c(c3)OCO4)cc12`, the Potency was inconclusive [inhibitor, single point].
With `CN(C)c1ccc(/C=C(/NC(=O)c2ccccc2)C(=O)N/N=C/c2ccc([N+](=O)[O-])c(O)c2)cc1` the Potency was active: 3.98 µM.
For `COc1ccc(Oc2c(O)c3ccccc3n(C)c2=O)cc1`, the Potency was inconclusive [inhibitor, single point].
For `O=S(=O)(c1ccccc1)N1CC=C(c2ccccc2)CC1`, the Potency was inconclusive [inhibitor, single point].
`Cc1cc2oc(=O)cc(CN3CCCc4ccccc43)c2cc1C` was tested, and the Potency was active: 25.1 µM.
`NNC(=O)c1nnn(-c2nonc2N)c1-c1cccs1` was tested, and the Potency was active: 11.2 µM.
In the case of `CC1=[N+]([O-])C(C)(C)C(c2ccc(Br)cc2)=[N+]1[O-]`, the “activity, negative = inhibition” value is reported as inactive: -3.54%.
In the case of `COC(=O)c1ccc(C(NC(=O)OCc2ccccc2)/C(=C/[C@@H](C)C(=O)Nc2ccccc2)c2cccnc2)cc1` (stereo partly drawn), the “activity, negative = inhibition” value is reported as inactive: 2.36%.
`CCOC(=O)c1cc2c(=O)[nH]ccc2nc1C` was tested, and the Potency was inconclusive [inhibitor, partial curve].
With `Cc1ccc(O)c(C(=O)c2cc(C#N)c(=O)n(C(C)c3ccccc3)c2)c1` (stereo not drawn) the Potency was inconclusive [inhibitor, single point].
`CS(=O)(=O)N1CCC2(CCN(C(c3ccccc3)c3ccccc3)CC2)CC1` was tested, and the “activity, negative = inhibition” value was inactive: 12.9%.
With `CCC(CC)C(=O)Nc1cccc(/C(C)=N/NC(=O)c2ccccc2Cl)c1` the Potency was active: 12.6 µM.
In the case of `CC(=O)n1cc([C@@H]2C=C(C(=O)N3CCOCC3)O[C@H](OCCCCO)C2)c2ccccc21`, the Potency is reported as inconclusive [inhibitor, single point].
For `Cc1n[nH]c(C)c1SCC(=O)Nc1ccc(F)cc1`, the “activity, negative = inhibition” value was inactive: -5.3%.
`Cc1cc(Nc2ccc(C(C)C)cc2)n2ncnc2n1` was tested, and the Potency was inconclusive [inhibitor, partial curve].
With `CC(C)C(=O)Nc1cccc(NC(=S)NC(=O)c2ccc([N+](=O)[O-])cc2)c1` the Potency was inconclusive [inhibitor, single point].
With `Cc1ccc(C)c(NC(=S)/C(=C(\[O-])c2ccc(Cl)s2)[n+]2ccccc2)c1` the Potency was inconclusive [inhibitor, single point].
`O=c1cc(N2CCCCC2)c(-c2ccccc2)nn1Cc1cccc(Cl)c1` was tested, and the Potency was active: 22.4 µM.
For `COc1ccccc1CNc1cc(-c2ccccc2)ccc1OC`, the Potency was inconclusive [inhibitor, single point].
In the case of `Cc1ccc(S(=O)(=O)N(CC(=O)N2CCCCC2)c2cccc(C)c2)cc1`, the Potency is reported as inconclusive [inhibitor, partial curve].
With `S=C(c1nc2ccccc2[nH]1)N1CCOCC1` the Potency was active: 12.6 µM.
With `COc1cccc(CC(=O)N2CCc3nc(COc4ccccc4)c4c(c3C2)CO[C@@H](C)C4)c1` the activity, negative = inhibition was inactive: 6.69% [at 13.5 µM].
`C#C[C@@]1(O)CC[C@@H]2[C@@H]3CCC4=CC(=O)CC[C@@H]4[C@H]3CC[C@]21C` was tested, and the “activity, negative = inhibition” value was inactive: -6.81% [at 20.9 µM].
For `Cc1ccc(OCC(=O)c2cc(C)n(-c3ccccc3)c2C)c([N+](=O)[O-])n1`, the Potency was inconclusive [inhibitor, single point].
`CCC(c1nnnn1C1CCCCC1)N(Cc1ccco1)Cc1cc2ccc(OC)cc2[nH]c1=O` (stereo not drawn) was tested, and the Potency was inconclusive [inhibitor, partial curve].
In the case of `CCOc1ccc2nc(SC3CC(=O)N(c4ccc(OC)cc4)C3=O)sc2c1` (stereo not drawn), the Potency is reported as active: 15.8 µM.
In the case of `Cc1ccc(-c2cn3nc(C)c(C)nc3n2)cc1`, the Potency is reported as inconclusive [inhibitor, partial curve].
`COc1ccc(-c2noc(CCC(=O)Nc3ccc4c(c3)OCCO4)n2)cc1` was tested, and the Potency was inconclusive [inhibitor, partial curve].
For `O=C(c1ccc(NS(=O)(=O)c2cccs2)cc1)N1CCCCC1`, the Potency was inconclusive [inhibitor, single point].
`Cc1nc2nc(SCC(=O)O)nn2c(C)c1Cc1c(F)cccc1Cl` was tested, and the “activity, negative = inhibition” value was inactive: -5.47%.
For `N#Cc1ccc(CO/N=C/c2ccccc2)cc1`, the “activity, negative = inhibition” value was inactive: -1.39%.
`CCOC(=O)CCn1c2nc(C)cc(C)c2c(=O)n1-c1ccccc1` was tested, and the Potency was inconclusive [inhibitor, partial curve].
With `Cc1ccccc1-c1ccc2ncnc(N3CCN(C)CC3)c2c1` the Potency was inconclusive [inhibitor, single point].
For `COC(=O)c1c(NC(=O)CN2CCN(Cc3ccc4c(c3)OCO4)CC2)sc(C)c1C`, the Potency was active: 12.6 µM.
For `COCCN(CC(=O)NCc1ccc2c(c1)OCO2)C(=O)CCC(=O)Nc1nccs1`, the “activity, negative = inhibition” value was inactive: 5.58%.
For `O=C(c1cccs1)N1CCCN(c2ncnc3scc(-c4ccccc4)c23)CC1`, the Potency was inconclusive [inhibitor, single point].
With `CC1C/C(=C/c2ccco2)C(=O)/C(=C/c2ccco2)C1` (stereo not drawn) the Potency was active: 14.1 µM.
In the case of `COc1ccc(C2=N[C@@H](C(C)C)CO2)cc1`, the “activity, negative = inhibition” value is reported as inactive: -11.6% [at 120 µM].
With `Cc1cccc(Oc2ncnc3onc(C)c23)c1C` the “activity, negative = inhibition” value was inactive: 8.56%.
For `COc1ccc(Cn2c(=O)sc3ccccc32)cc1`, the “activity, negative = inhibition” value was inactive: 4.47%.
With `CCC(C)n1c(=N)c(C#N)cc2c(=O)n3ccccc3nc21` (stereo not drawn) the Potency was inconclusive [inhibitor, partial curve].
For `COc1cccc(CNc2nc3nc(C)cc(C)n3n2)c1`, the Potency was inconclusive [inhibitor, single point].
For `Cc1c(C(=O)O)cccc1[N+](=O)[O-]`, the “activity, negative = inhibition” value was inactive: 8.65%.
In the case of `CCOc1ccc(Nc2ncnc3c2cnn3Cc2ccccc2)cc1`, the Potency is reported as active: 11.2 µM.
`O=C(CSc1nnc(Cc2cccs2)n1CCc1ccccc1)N1CCCc2ccccc21` was tested, and the Potency was inconclusive [inhibitor, partial curve].
`CCOC(=O)C1C(=O)CC(O)(c2ccccc2)CC1c1ccccc1` (stereo not drawn) was tested, and the Potency was inconclusive [inhibitor, partial curve].
For `O=C(OCC(=O)c1cccs1)c1ccc([N+](=O)[O-])o1`, the Potency was inconclusive [inhibitor, single point].
For `COc1ccccc1/C=C/C1=NC(=C\C=C/c2ccccc2)/C(=O)O1`, the Potency was inconclusive [inhibitor, partial curve].
Potency means the concentration at half of the fitted maximal effect; tags describe the fitted curve by direction and shape.
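Wherever activity, negative = inhibition is given: plate controls were no enzyme wells and a reference inhibitor.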
